# Measured values: the supplement of paper PMC4604168 (melanoma cell lines)
# The list shows a part of the results. Single values are uncertain, as repeats are few or missing.
# Tests used:
# Experiment in all cases: cell count relative to DMSO control; melanoma cells; higher = more viable cells
# Details in all cases: library dose: low library concentration; 72 h
# WM115 = test system: WM115
# WM1716 = test system: WM1716
# WM1745 = test system: WM1745
# WM3526 = test system: WM3526
# WM3619 = test system: WM3619
# WM451Lu = test system: WM451Lu
# 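Note: cell number obtained by counting DAPI-stained nuclei in high-throughput microscope images with image analysis software, screen run in 1,536-well plates.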
Compound,cell count (WM115) [%],cell count (WM1716) [%],cell count (WM1745) [%],cell count (WM3526) [%],cell count (WM3619) [%],cell count (WM451Lu) [%]
"O=c1[nH]nc(Sc2ncc([N+](=O)[O-])s2)n1-c1ccc2c(c1)OCCO2 + Cc1cn(-c2cc(NC(=O)c3ccc(C)c(Nc4nccc(-c5cccnc5)n4)c3)cc(C(F)(F)F)c2)cn1 [nilotinib] (first compound 0.2 µM, partner dose 0.2 µM)",98.7,94.1,84.6,91.5,83,109
"Cn1cncc1[C@@](N)(c1ccc(Cl)cc1)c1ccc2c(c1)c(-c1cccc(Cl)c1)cc(=O)n2C [tipifarnib] + Oc1cc(-c2nc(-c3ccccc3)[nH]c2-c2ccncc2)ccc1Cl [L779450] (first compound 0.01 µM, partner dose 0.2 µM)",88.3,96.6,96,80.1,79.1,111
"CC1(C)NC(=O)N(c2ccc([N+](=O)[O-])c(C(F)(F)F)c2)C1=O [nilutamide] + COC(=O)c1sccc1S(=O)(=O)Nc1ccc(Nc2ccccc2)cc1OC [GSK0660] (first compound 1 µM, partner dose 1 µM)",98.6,104,96.6,88.3,115,88.8
"Cn1cncc1[C@@](N)(c1ccc(Cl)cc1)c1ccc2c(c1)c(-c1cccc(Cl)c1)cc(=O)n2C [tipifarnib] + COc1cc2c(Oc3ccc4[nH]c(C)cc4c3F)ncnc2cc1OCCCN1CCCC1 [cediranib] (first compound 0.01 µM, partner dose 0.4 µM)",89,80.8,91.8,94.9,122,75.1
"CC1(C)NC(=O)N(c2ccc([N+](=O)[O-])c(C(F)(F)F)c2)C1=O [nilutamide] + CN(NC(=O)CC(=O)NN(C)C(=S)c1ccccc1)C(=S)c1ccccc1 [STA4783] (first compound 1 µM, partner dose 0.006 µM)",96.7,74.2,58.7,85.3,51,87.5
"O=c1[nH]nc(Sc2ncc([N+](=O)[O-])s2)n1-c1ccc2c(c1)OCCO2 + C[C@@H](Oc1cc(-c2cnn(C3CCNCC3)c2)cnc1N)c1c(Cl)ccc(F)c1Cl [Crizotinib] (first compound 0.2 µM, partner dose 0.2 µM)",113,119,103,107,99.1,119
"C[C@@H]1CCN(C(=O)CC#N)C[C@@H]1N(C)c1ncnc2[nH]ccc12 + Cn1cncc1[C@@](N)(c1ccc(Cl)cc1)c1ccc2c(c1)c(-c1cccc(Cl)c1)cc(=O)n2C [tipifarnib] (first compound 1 µM, partner dose 0.01 µM)",103,85.8,88.6,103,75.8,82.7
"CC1(C)NC(=O)N(c2ccc([N+](=O)[O-])c(C(F)(F)F)c2)C1=O [nilutamide] + O=S(=O)(c1ccccc1)N(CC(F)(F)F)c1ccc(C(O)(C(F)(F)F)C(F)(F)F)cc1 [T0901317] (first compound 1 µM, partner dose 1.4 µM)",86.1,99.1,75.7,77.2,107,108
"Cn1cncc1[C@@](N)(c1ccc(Cl)cc1)c1ccc2c(c1)c(-c1cccc(Cl)c1)cc(=O)n2C [tipifarnib] + COC(=O)c1sccc1S(=O)(=O)Nc1ccc(Nc2ccccc2)cc1OC [GSK0660] (first compound 0.01 µM, partner dose 1 µM)",88,68.6,109,86.4,102,87.1
"O=C(Nc1cccc(Cl)c1)Nc1ncc(CCNc2ncnc3ccsc23)s1 + Cc1cc([N+](=O)[O-])ccc1NS(=O)(=O)c1cc(Cl)ccc1Cl [FH535] (first compound 0.0008 µM, partner dose 1 µM)",64.3,93.2,92.9,97.1,91.9,97.4
"O=C(O)c1ccc(-c2c[nH]c3ncc(-c4ccccc4)cc23)cc1C1CCCC1 + O=S(=O)(c1ccccc1)N(CC(F)(F)F)c1ccc(C(O)(C(F)(F)F)C(F)(F)F)cc1 [T0901317] (first compound 0.16 µM, partner dose 1.4 µM)",91.7,92.2,85,106,82.8,98.5
"COc1cc(Nc2ncc(F)c(Nc3ccc4c(n3)NC(=O)C(C)(C)O4)n2)cc(OC)c1OC [Tamatinib] + C[C@@H]1CCN(C(=O)CC#N)C[C@@H]1N(C)c1ncnc2[nH]ccc12 [CP690550] (first compound 0.4 µM, partner dose 1 µM)",73.6,90.8,72.6,85.5,101,106
"Cn1cncc1[C@@](N)(c1ccc(Cl)cc1)c1ccc2c(c1)c(-c1cccc(Cl)c1)cc(=O)n2C [tipifarnib] + NCC(=O)Nc1ccc(-n2nc(C(F)(F)F)cc2-c2ccc3c(ccc4ccccc43)c2)cc1 [OSU03012] (first compound 0.01 µM, partner dose 1 µM)",88.9,76.2,93.3,52,112,49.2
"O=c1[nH]nc(Sc2ncc([N+](=O)[O-])s2)n1-c1ccc2c(c1)OCCO2 + CCN(CC)CCCCNc1ncc2cc(-c3cc(OC)cc(OC)c3)c(NC(=O)NC(C)(C)C)nc2n1 [PD173074] (first compound 0.2 µM, partner dose 0.1 µM)",106,100,99.6,106,82.2,112
"C[C@@H]1CCN(C(=O)CC#N)C[C@@H]1N(C)c1ncnc2[nH]ccc12 + N#Cc1c(O)c2c(-c3ccc(-c4ccccc4O)cc3)csc2[nH]c1=O [A769662] (first compound 1 µM, partner dose 2 µM)",102,102,92.3,106,109,99.1
"O=c1[nH]nc(Sc2ncc([N+](=O)[O-])s2)n1-c1ccc2c(c1)OCCO2 + C[C@@H]1CCN(C(=O)CC#N)C[C@@H]1N(C)c1ncnc2[nH]ccc12 [CP690550] (first compound 0.2 µM, partner dose 1 µM)",98.5,76.2,87.4,99.2,102,120
